According to publication PMC4336329 (PLoS ONE, 2015):
Among all 310,000 compounds or so, about 14,000 (4.5%) showed an effect of 50% or more. The effect is printed as a negative number. The list shows a part of the results.

molecular target: human ether-à-go-go-related gene (hERG) potassium channel (human, UniProt Q12809); test: primary screen, population patch clamp on CHO cells stably expressing hERG
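Note: peak tail current of the secondary pulse compared with the same well before compound.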

Chain of human ether-à-go-go-related gene (hERG) potassium channel (Q12809 whole entry, looked up): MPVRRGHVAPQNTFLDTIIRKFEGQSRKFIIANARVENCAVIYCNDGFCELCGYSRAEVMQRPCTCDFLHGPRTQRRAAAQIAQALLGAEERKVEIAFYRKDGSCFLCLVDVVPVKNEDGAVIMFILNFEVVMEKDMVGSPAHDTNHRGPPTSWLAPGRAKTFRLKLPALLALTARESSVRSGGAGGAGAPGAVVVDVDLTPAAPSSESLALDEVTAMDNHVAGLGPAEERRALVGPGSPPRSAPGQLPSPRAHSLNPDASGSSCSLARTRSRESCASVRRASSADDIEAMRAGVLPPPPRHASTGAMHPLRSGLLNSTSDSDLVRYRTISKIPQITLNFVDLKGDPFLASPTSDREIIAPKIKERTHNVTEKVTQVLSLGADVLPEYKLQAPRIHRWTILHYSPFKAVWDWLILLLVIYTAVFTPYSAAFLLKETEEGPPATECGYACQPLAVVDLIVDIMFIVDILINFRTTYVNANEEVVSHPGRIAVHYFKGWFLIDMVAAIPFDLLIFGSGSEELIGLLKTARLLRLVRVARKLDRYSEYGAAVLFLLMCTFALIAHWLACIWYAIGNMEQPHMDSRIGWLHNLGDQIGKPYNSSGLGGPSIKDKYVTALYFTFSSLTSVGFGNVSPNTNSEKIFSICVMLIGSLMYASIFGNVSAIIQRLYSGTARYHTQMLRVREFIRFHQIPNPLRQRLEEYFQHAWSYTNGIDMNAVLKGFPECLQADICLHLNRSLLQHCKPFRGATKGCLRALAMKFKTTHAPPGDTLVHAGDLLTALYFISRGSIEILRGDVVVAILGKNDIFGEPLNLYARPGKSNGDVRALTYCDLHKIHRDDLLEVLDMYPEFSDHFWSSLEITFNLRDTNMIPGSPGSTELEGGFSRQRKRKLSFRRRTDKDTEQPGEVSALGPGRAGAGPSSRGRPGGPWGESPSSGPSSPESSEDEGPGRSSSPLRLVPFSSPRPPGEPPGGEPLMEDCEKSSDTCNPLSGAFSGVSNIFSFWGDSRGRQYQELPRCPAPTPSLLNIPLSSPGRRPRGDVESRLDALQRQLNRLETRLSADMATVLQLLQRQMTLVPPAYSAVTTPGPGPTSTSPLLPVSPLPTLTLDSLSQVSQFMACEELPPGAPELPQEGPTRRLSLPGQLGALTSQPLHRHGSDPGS

Row | SMILES | hERG current change (%, negative = inhibition) at 10uM
1 | COCCN(CC1CCCN(C2Cc3ccccc3C2)C1)C(=O)CCSC (stereo not drawn) | -45.8%
2 | O=C1N=C(N2CCOCC2)S/C1=C\C=C/c1ccccc1 | -58.2%
3 | COc1cc(C(=O)NNC(=O)C2CSC3(C)CCC(=O)N23)cc(OC)c1OC (stereo not drawn) | 0.132%
4 | COc1ccccc1C1c2ccc3ccccc3c2Oc2ncn(CCCO)c(=N)c21 (stereo not drawn) | -66.6%
5 | C[n+]1cn(Cc2ccc(C#N)cc2)c2ccccc21.[Cl-] | 2.75%
6 | CCS(=O)(=O)c1nc(S(=O)(=O)c2ccc(Cl)cc2)c(N2CCCC2)s1 | 10.5%
7 | Cc1cccc(NC(=O)N2CCCC(CNC(=O)c3ccccc3Cl)C2)c1C (stereo not drawn) | 27.6%
8 | COCCCNC(=S)N/N=C/c1ccc(O)cc1O | 8.36%
9 | Cc1ccc(CSc2nccc(-c3c(C)nc4ccccn34)n2)cc1 | 16.9%
10 | Cc1cccc(-n2c(SCC(N)=O)nc3c(c2=O)C2(CCCC2)Cc2ccccc2-3)c1 | -13.1%
11 | CC1(C)CC(=O)NC=C(c2ccccc2)C1 | 5.84%
12 | CCOc1ccc(Nc2ccc(S(=O)(=O)N3CCN(C)CC3)cc2[N+](=O)[O-])cc1OCC | -10.7%
13 | O=C(NCc1ccccc1)C1CCN(C(=O)NCc2ccccc2)CC1 | 8.86%
14 | CCOC(=O)c1ccc2c(c1)[nH]c(=S)n2CC | 4.88%
15 | Cn1c(=NC(=O)C2CC2)sc2cccc(F)c21 | -15.7%
16 | O=C(CCCOc1ccccc1)Nc1nncs1 | -5.59%
17 | Cc1cc(/C=C2\SC(=O)N(CC(=O)Nc3ccccc3F)C2=O)c(C)n1C | 10.2%
18 | CCOC(=O)c1sc(NC(=O)CN2C(=O)c3cccc4cccc(c34)C2=O)nc1C | 15.3%
19 | CCn1ncc(Br)c1C(=O)Nc1cc([N+](=O)[O-])ccc1C | -13.1%
20 | O=C1c2ccccc2N2C(=O)c3ccccc3C2N1Cc1ccco1 (stereo not drawn) | -27.4%
21 | O=C(NCc1ccc(Cl)cc1)c1cc(=O)nc2sc(-c3ccccc3)nn12 | -2.29%

Row | SMILES | hERG current change (%, negative = inhibition) at 10uM
22 | O=C(COC(=O)c1nc(Cl)ccc1Cl)c1ccc(Cl)s1 | 8.38%
23 | O=[N+]([O-])c1ccc(-c2csc(N3CCc4ccccc4C3)n2)cc1 | -4.54%
24 | CCc1ccc(S(=O)(=O)/N=C2\C=C(Nc3ccc(C(=O)O)cc3)C(=O)c3ccccc32)cc1 | 21.5%
25 | O=S(=O)(c1ccc(Cl)s1)N1CCN(CCc2ccccc2)CC1 | -2.11%
26 | CC(C)NC(=O)CN(Cc1ccc(F)cc1)C(=O)CCC(=O)Nc1ccccn1 | 11.6%
27 | O=C1NN(c2ccccc2)C(=O)/C1=C/c1ccc(Sc2cccc3ccccc23)o1 | 8.89%
28 | CCN(C(=O)CN1C(=O)COc2ccc(S(=O)(=O)N3CCOCC3)cc21)c1ccc(OC)cc1 | -20.9%
29 | CCOC(=O)Cc1csc(NC(=O)c2cc3ccccc3o2)n1 | -16.5%
30 | NC(=O)CSc1nnc(-c2ccc(S(=O)(=O)N3CCCC3)cc2)n1CC1CCCO1 (stereo not drawn) | -1.83%
31 | Nc1ncnc2c1ncn2[C@@H]1O[C@H](CO)C[C@H]1O | 15.8%
32 | O=C(COC(=O)/C=C/c1ccccc1)NCCNC(=O)COC(=O)/C=C/c1ccccc1 | 5.3%
33 | COCC1CCCCN1C(=O)c1ccc2oc(CCCc3ccccc3)nc2c1 (stereo not drawn) | -14.3%
34 | COCc1nnc(NC(=O)C2CC(=O)N(C3CCCCC3)C2)s1 (stereo not drawn) | 0.298%
35 | Cc1ccc(NS(=O)(=O)c2ccc(CCC(=O)O)cc2)cc1 | 5.4%
36 | C/C(=N\NC(=O)c1csc2ccccc12)c1ccc(O)cc1 | 2.77%
37 | S=C(Nc1ccc(Cl)cc1)Nc1ccc2c(c1)OCCO2 | 16%
38 | COc1cc([N+](=O)[O-])ccc1NC(=O)c1cccc(NC(=O)C(C)C)c1 | 17.1%
39 | Clc1ccccc1C1SCC2Nc3ccccc3CN21 (stereo not drawn) | 7.1%
40 | Cc1ccc(CNC(=O)Cn2cc(C(F)(F)F)ccc2=O)cc1 | -5.92%
41 | Cc1cc([N+](=O)[O-])nn1CC(=O)Nc1sc2c(c1C(N)=O)CCCC2 | 7.62%
42 | COc1ccc(F)cc1COc1nc(C)nc2ccccc12 | -10.4%
